# The full ranking holds about 33,000 sequences; the median of “E-score (-0.5 to 0.5)” is about -0.043, and the highest 2% start at about 0.37. The list shows a part of the results.
# Biological target: T1, Upc2 (UniProt Q12151)
# T1 sequence: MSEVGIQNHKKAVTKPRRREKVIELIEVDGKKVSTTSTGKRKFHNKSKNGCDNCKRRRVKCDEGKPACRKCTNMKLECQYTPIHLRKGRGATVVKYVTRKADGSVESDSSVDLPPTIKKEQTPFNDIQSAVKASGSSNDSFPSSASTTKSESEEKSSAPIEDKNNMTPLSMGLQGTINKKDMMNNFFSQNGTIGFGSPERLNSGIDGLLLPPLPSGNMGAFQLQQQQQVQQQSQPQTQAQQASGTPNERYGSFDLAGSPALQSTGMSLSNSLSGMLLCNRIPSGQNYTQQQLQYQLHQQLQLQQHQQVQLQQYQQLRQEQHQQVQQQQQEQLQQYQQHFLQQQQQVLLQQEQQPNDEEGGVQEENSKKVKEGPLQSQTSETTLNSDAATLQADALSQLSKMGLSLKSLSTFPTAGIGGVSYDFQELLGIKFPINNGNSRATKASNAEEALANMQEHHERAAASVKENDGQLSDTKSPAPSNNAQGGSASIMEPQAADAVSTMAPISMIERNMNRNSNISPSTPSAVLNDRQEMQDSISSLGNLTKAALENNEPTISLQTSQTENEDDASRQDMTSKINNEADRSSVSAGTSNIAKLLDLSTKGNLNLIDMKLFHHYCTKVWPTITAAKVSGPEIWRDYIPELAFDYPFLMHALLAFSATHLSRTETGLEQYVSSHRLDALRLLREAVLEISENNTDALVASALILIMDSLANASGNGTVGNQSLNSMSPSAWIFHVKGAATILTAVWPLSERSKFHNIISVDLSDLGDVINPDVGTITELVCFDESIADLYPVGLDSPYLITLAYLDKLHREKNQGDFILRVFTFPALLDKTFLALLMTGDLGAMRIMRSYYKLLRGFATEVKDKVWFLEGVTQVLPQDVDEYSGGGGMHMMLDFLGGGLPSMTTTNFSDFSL
# Assay: PBM E-score (8-mer binding enrichment) (E-score (-0.5 to 0.5)); higher = stronger / more preferred TF binding; most listed sequences are background and not binding sites
# Settings: protein concentration: 200 nM; construct: GST-full length
# Summary of the method: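 PURExpress in vitro transcription/translation supplied GST-tagged yeast transcription factors, either full-length or DNA-binding domain. Applied at about 100-200 nM to universal all-10-mer Agilent arrays double-stranded by primer extension, the bound protein was detected with fluorescent anti-GST. E-scores, modified Wilcoxon-Mann-Whitney statistics, were given by the Universal PBM Analysis Suite to ungapped eight-base words pooled with their reverse complements after masliner normalisation.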
row,Sequence,PBM E-score
1,AGGGCGGG,0.00785
2,TACTTGAA,0.0955
3,GCAGTACA,-0.155
4,CAACGAAG,0.235
5,AGCGTACT,0.0261
6,AAGGCCAG,-0.182
7,CTACCAAG,-0.172
8,ATATGTTG,-0.0893
9,CATCGGCA,-0.0792
10,CATCTTGG,-0.305
11,AGTGATAT,0.132
12,CGAAGTAC,0.204
13,GAAGGGGC,-0.219
14,TGAGAACA,-0.263
15,GGATTACA,-0.201
16,ACACACAC,0.0448
17,CGAGAATA,0.167
18,ACTTATAG,0.11
19,AAGCGAGT,0.319
20,ATTAAAAG,0.101
21,ATAAAGAC,-0.0679
22,ATCCGCTC,0.139
23,AAACGCGA,0.337
24,GTCGCGTA,0.326
25,ATCGCCAT,-0.0336

row,Sequence,PBM E-score
1,ATGACAAG,-0.146
2,GAGCCTTA,-0.0515
3,GACTTGGC,-0.0943
4,CGTCGGCC,-0.159
5,AATACTAT,-0.241
6,CGCGGGGA,-0.0478
7,ACCCGTAA,0.24
8,CCCTCGAC,-0.12
9,GTACGTAC,0.324
10,GTCATTCA,-0.166
11,GCAAAACA,-0.144
12,AGAGATAC,0.157
13,AGGGTGTC,-0.186
14,CAGGAGAG,-0.133
15,AGAGCAAA,-0.148
16,CCAAGAGG,-0.316
17,AAGATATA,0.127
18,CTGCAACA,0.0316
19,CCTGTGTA,-0.0847
20,ATCTATCA,0.0727
21,ACTTCTGC,-0.04
22,CATGACGC,-0.0058
23,ATTATGGG,-0.315
24,CAAGACCA,-0.319
25,ATAGAATA,-0.132

row,Sequence,PBM E-score
1,AAGGAGGC,-0.317
2,GTCTGCTA,-0.148
3,CCCCCTCG,0.141
4,AGTACGCA,-0.0414
5,AAGAGACG,0.102
6,ATGTACCG,-0.03
7,AAGGAGTG,-0.0551
8,ACCAATAT,0.0909
9,CAGACTAA,-0.124
10,CGGCTCTA,-0.0521
11,CTCAGAAA,-0.00708
12,CTTACCCC,-0.232
13,ACTTGTTG,-0.135
14,ACACACGC,0.0327
15,AACCGTGA,-0.0176
16,ACCTCGCA,0.153
17,AACAGCAA,-0.175
18,CGCCAAGC,-0.128
19,CACGGTGA,-0.0342
20,CTCGGCGC,0.069
21,GAGACCTC,-0.0563
22,CGCCATAG,-0.0763
23,ATAGCACC,-0.0788
24,AGGTCTTA,0.104
25,ATGTAAAG,-0.0452

row,Sequence,PBM E-score
1,CAGCATAG,-0.167
2,CAGAGTCG,-0.0742
3,ACGCAATG,0.00346
4,CGGCCATA,0.0434
5,AGTCGCTA,0.0916
6,CATAGCCA,-0.226
7,CTAGGCCC,-0.335
8,AGCGGGTG,-0.152
9,GATTACAC,-0.0488
10,GCAAGGGA,-0.0719
11,ACCTTCAC,-0.145
12,ATATTATC,-0.0501
13,CGATAATC,-0.0391
14,ACGTCACC,-0.049
15,GTGGGACA,-0.146
16,CAAGTCCC,-0.298
17,GACCGTAC,0.36
18,CACTGAAA,0.0683
19,ATGTCCAC,-0.208
20,ATCCTATA,0.0557
21,AGGTATTC,0.109
22,ACGCGGGC,0.00815
23,AATACGCA,0.159
24,ACACCAGG,-0.251
25,AAATCAAC,-0.0395

row,Sequence,PBM E-score
1,CTCGCTCC,0.313
2,CCACGGAC,-0.276
3,CGAGCCAA,0.0857
4,AGCGAGCA,0.245
5,GTCGCCTA,-0.0155
6,AAGAAACG,0.308
7,TCAGTCGA,-0.00236
8,CCTGAGAA,-0.0858
9,CAGAGCGG,-0.24
10,CCTGCCTA,-0.207
11,AGTTGTTG,-0.293
12,ATATACTA,0.161
13,CCCGTGTA,0.0474
14,GAAGGCGA,-0.18
15,ATCATACC,-0.02
16,GGCTACCC,-0.22
17,GGATCCGA,0.0685
18,GACATGTC,-0.095
19,AAAAAACA,-0.00292
20,ACCCGGAC,-0.0931
21,ATTATCTA,0.0661
22,GTTATGCA,-0.225
23,CGTTCGGC,0.146
24,CGTAACTA,0.185
25,AAAAGAGC,0.076

row,Sequence,PBM E-score
1,AGTATATC,0.0604
2,ATGTAGGA,-0.215
3,CGGTTTTC,0.249
4,ATCGACAT,0.0418
5,ACCTCATC,-0.133
6,CGGGCTTA,-0.127
7,CGGACCCG,0.184
8,GCTGCACC,0.0672
9,CGCATTAC,0.18
10,CTACCATC,0.00378
11,AGAGCTTA,-0.0113
12,ATCTCATA,-0.0348
13,CCCGGAAC,0.158
14,AACTGTAA,0.103
15,GAGGCCGC,-0.162
16,TAGCCCAA,-0.195
17,CAACAAAC,0.0741
18,GTGCACAC,-0.24
19,CTAATCCA,-0.29
20,GAACTATC,0.0433
21,CAGAACCG,-0.0496
22,CCGCCACC,-0.157
23,ACTCTGCG,-0.00036
24,ATAGCGCG,0.0919
25,ACACTCTG,0.00062

row,Sequence,PBM E-score
1,CTGGTACC,-0.0969
2,TTCGCCAA,0.0392
3,ACAGTGAC,-0.0248
4,CATCGGCG,-0.201
5,CGTCAATA,-0.0786
6,ATGCGGAC,0.0379
7,GCTTCTCC,-0.102
8,ATTGCCAG,-0.0715
9,AATACCAC,-0.0925
10,ACTGTCCT,-0.136
11,AATTTCGG,0.0667
12,AAATTTTG,-0.171
13,AGCACTGC,-0.177
14,AAGTCAGC,0.0182
15,AGACTCGA,-0.181
16,ATTTGGCG,0.161
17,GGTACCAC,-0.18
18,GCATAAGA,0.0201
19,CTCTGGAC,-0.0919
20,CTCGGCTA,0.125
21,ATAGTACC,-0.084
22,AAGAGTAT,-0.111

# From the supplement of paper PMC3334620
